In the supplement of paper PMC11181314:
The other results are listed elsewhere or left out. Single values of this set are uncertain.

tested on: U2OS; test: Cell Painting induction (percent of morphological features significantly changed vs DMSO); higher = stronger morphological change; details: 10 µM; 20 h; run: primary screen (compounds selected for induction >=10%)
Protocol: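 Cell Painting assay in U2OS cells: compounds at 10 µM for 20 h, six dyes, 579 robust CellProfiler features as Z-scores vs DMSO median (MAD). Induction is the % of significantly changed features (active if ≥5%); relative cell count is in % of DMSO. The primary run holds DCM compounds preselected for induction ≥10%; the confirmation repeat defines active compounds (370 of 549). Replicate agreement is low, attributed to precipitation.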
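Also: stains mark DNA, RNA and nucleoli, ER, actin, Golgi, plasma membrane and mitochondria, read by high-content imaging, with DMSO controls at matching solvent concentration.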

SMILES	Cell Painting induction
COc1cc(Nc2nc3c(S(=O)(=O)c4ccc(C)cc4)nnn3c3ccccc23)cc(OC)c1OC	30.9%
CN(CCNC(=O)C1CCCN(c2ncnc3c2nc2n3CCCCC2)C1)Cc1ccccc1 (configuration not stated)	20.9%
Clc1cccc(-n2nc(-c3ccccc3)c3cnc4cc5c(cc4c32)OCCO5)c1	10%
COc1cccc2cc(C(C)N(CCCN3CCOCC3)C(=S)Nc3ccccc3C)oc12 (configuration not stated)	10.4%
CC1CCC(NC(=O)C2CCC(CNS(=O)(=O)c3ccc4c(c3)C(C)(C)C(=O)N4C)CC2)CC1 (configuration not stated)	35.4%
CCc1ccc(NC(=O)c2nnn(-c3ccc(OC)c(Cl)c3)c2C)cc1	19.3%
COc1cc(OC)c(NC(=O)c2nnn(-c3ccccc3)c2C)cc1Cl	22.1%
CCOC(=O)c1c(C)n(C)c2ccc(OCC(O)CNC(CC)CO)cc12 (configuration not stated)	15.5%
CCN(CC)CCNC(=O)COc1ccc(Cl)cc1Cl	16.4%
O=C(Nc1ccc(NC(=S)NC(=O)c2ccco2)cc1)c1ccccc1	34%
CCn1cc(C(=O)NCCN(CC(C)C)CC(C)C)c(=O)c2cc(S(=O)(=O)N3CCOCC3)ccc21	20%
N/C(=N\C(=O)/C=C/c1ccccc1)Nc1nc2ccccc2o1	12.1%
COc1ccc(NC(=O)CCc2nc(-c3ccc(C)cc3)no2)cc1Cl	29.4%
CCOc1ccc(-n2c(SCC(=O)Nc3ccccc3CC)nc3nnc(C)c-3c2N)cc1	20.4%
CO/C(O)=C1\C(C)=Nc2nc3ccccc3n2C1c1ccccc1F (configuration not stated)	43%
CCn1cc(C(=O)NCCCN2CC(C)CC(C)C2)c(=O)c2cc(S(=O)(=O)N(C)C)ccc21 (configuration not stated)	18.1%
CCOc1ccc(CCNC(=O)c2ccc3c(=O)n4c(nc3c2)CCCCC4)cc1	42.5%
CCOC(=O)c1c(-c2ccccc2)csc1NC(=O)c1cc2ccccc2oc1=O	48.4%
O=C(NCCCN(Cc1ccco1)C1CCCC1)c1noc2c1COc1ccccc1-2	26.9%

SMILES	Cell Painting induction
Cc1c(Cl)cccc1-n1ncc(C(=O)Nc2ccccc2F)c1C1CCNCC1	24.4%
COc1ccccc1NC(=O)c1cc2c(CO)cnc(C)c2o/c1=N\c1cc(OC)c(OC)c(OC)c1	15%
Cc1cccc2sc(N(CCCN(C)C)C(=O)c3cc4ccccc4oc3=O)nc12	43.9%
CC(C)Cn1cc(C(=O)NCCCOC(C)C)c2c3ccccc3n(C)c2c1=O	18.3%
Cc1cc(C(=O)Nc2c(C)nn(Cc3c(Cl)cccc3Cl)c2C)no1	16.8%
CCN1CCCc2cc(CN(CCN3CCOCC3)C(=S)Nc3cccc(Cl)c3)ccc21	29.2%
CCN(Cc1ccccc1)S(=O)(=O)c1ccc(S(=O)(=O)N2CCN(CCC#N)CC2)cc1	15.7%
COc1ccc(N(CC(=O)N/N=C(\C)c2cccs2)S(=O)(=O)c2ccccc2)cc1Cl	21.2%
COc1ccc(Nc2c3c(c(C#N)c4nc5ccccc5n24)CCC3)cc1	55.4%
CC1CC(C)CN(CCCNC(=O)c2ccc(CNS(=O)(=O)c3ccc(F)cc3)cc2)C1 (configuration not stated)	32.3%
COc1cc(NC(=O)c2cc(-c3ccc(C)cc3)on2)cc(OC)c1OC	12.3%
COc1cc(CNCCCN2CCOCC2)cc(Cl)c1OCC(=O)NC(C)(C)C	19.7%
CCCCCCC(O)(c1ccc(OC)cc1)C(CN1CCOCC1)c1ccccc1 (configuration not stated)	49.6%
CCCCN(C)CCN1C(=O)[C@@H]2C(C(=O)Nc3ccc(OC)cc3)[C@@H]3C=C[C@]2(O3)C1C(=O)NC1CCCCC1 (some centres not stated)	28.3%
CC(=O)c1ccc(S(=O)(=O)N2CCC(Oc3ccc(-n4cnnn4)cc3)CC2)cc1	44.4%
CCCCN(C)CCn1c(=S)[nH]c2cc(OCC)c(OCC)cc2c1=O	26.1%
CCC1Oc2ccccc2N(CC(=O)NCCCN2CCN(c3ccc(OC)cc3)CC2)C1=O (configuration not stated)	10.7%
COc1ccc(-n2ncc(C(=O)Nc3cc(Cl)ccc3C)c2C2CCNCC2)cc1	33.2%
